Measurements reported in PMC4336329 (PLoS ONE, 2015).
Out of some 310,000 compounds screened, about 14,000 (4.5%) showed an effect of 50% or more. Effects have a minus sign here. The list shows a part of the results.

target: human ether-à-go-go-related gene (hERG) potassium channel (human, UniProt Q12809); test: primary screen, population patch clamp on CHO cells stably expressing hERG
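Note: peak tail current of the secondary pulse compared with the same well before compound.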

human ether-à-go-go-related gene (hERG) potassium channel, sequence (Q12809 whole entry, looked up): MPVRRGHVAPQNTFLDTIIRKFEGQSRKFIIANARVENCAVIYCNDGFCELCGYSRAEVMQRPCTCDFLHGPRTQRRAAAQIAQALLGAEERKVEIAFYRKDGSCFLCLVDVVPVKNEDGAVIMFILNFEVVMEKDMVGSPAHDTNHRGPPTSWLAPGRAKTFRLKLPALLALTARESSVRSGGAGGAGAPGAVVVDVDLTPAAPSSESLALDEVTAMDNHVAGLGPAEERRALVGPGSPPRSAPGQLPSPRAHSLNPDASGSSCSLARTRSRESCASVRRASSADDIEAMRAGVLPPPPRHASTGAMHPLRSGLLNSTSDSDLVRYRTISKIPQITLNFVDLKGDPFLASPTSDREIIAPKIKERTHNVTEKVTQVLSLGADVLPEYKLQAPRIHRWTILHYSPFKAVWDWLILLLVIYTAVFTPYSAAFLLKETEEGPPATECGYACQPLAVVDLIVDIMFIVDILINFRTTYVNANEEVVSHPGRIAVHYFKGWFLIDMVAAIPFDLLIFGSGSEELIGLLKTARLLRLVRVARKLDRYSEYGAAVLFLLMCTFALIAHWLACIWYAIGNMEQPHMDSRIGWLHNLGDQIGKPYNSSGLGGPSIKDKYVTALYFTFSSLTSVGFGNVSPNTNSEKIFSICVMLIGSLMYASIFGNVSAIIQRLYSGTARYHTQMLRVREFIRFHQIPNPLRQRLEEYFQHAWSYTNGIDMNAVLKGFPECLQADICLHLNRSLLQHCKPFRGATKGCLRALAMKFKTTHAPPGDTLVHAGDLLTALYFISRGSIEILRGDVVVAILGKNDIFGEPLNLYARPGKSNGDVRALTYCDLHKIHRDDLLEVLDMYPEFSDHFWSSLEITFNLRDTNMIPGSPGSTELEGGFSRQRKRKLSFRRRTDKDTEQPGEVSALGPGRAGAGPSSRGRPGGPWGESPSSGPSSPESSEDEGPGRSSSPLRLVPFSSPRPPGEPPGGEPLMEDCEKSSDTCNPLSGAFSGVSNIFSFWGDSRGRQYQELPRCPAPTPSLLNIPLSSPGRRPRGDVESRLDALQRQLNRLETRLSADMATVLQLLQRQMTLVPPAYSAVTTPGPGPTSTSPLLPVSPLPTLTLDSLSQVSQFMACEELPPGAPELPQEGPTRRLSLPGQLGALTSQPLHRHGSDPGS

SMILES	hERG current change (%, negative = inhibition) at 10uM [%]
CC(C)CNC(=O)NC(=O)COc1ccc(C=O)cc1	-2.33
CCCCOc1ccc(C(=O)N/C(=C/C=C/c2ccccc2)C(=O)O)cc1	19.8
CC(=O)c1cccc(NC(=O)CSc2nc(N3CCCCC3)nc(N3CCCCC3)n2)c1	20.8
Cc1onc(-c2ccccc2Cl)c1C(=O)N1CCN(Cc2ccc3c(c2)OCO3)CC1	-4.61
CN(Cc1ccc(C#CCCO)cc1)CC1CCCN(CCc2ccc(Cl)cc2)C1 (stereo not drawn)	-70.9
O=C(COc1ccc(Br)cc1)N1CCc2ccccc2C1	-22.2
C=CCn1c(=O)c2ccccc2n2c(SCc3c(C(=O)OCC)oc4ccccc34)nnc12	-56.1
CCN(CCO)Cc1csc2ccc(Br)cc12.Cl	-19.3
CC(=O)Nc1cccc(NC(=O)CSc2nc(=O)n(Cc3ccncc3)c3c2CCC3)c1	-0.0125
CCOc1ccc(NC(=O)C2(c3ccc(OC)c(OC)c3)CCCC2)cc1	-21.8
COc1ccc(C(=O)NC(=S)NCc2ccccc2)cc1OC	19.2
CCOC(=O)c1nnn(-c2nonc2-n2cccc2)c1CN1CCOCC1	-18.2
Cc1cccc(NC(=O)N2C3CCCC2CC(NC(=O)C2CC2)C3)c1 (stereo not drawn)	0.607
Cc1ccc(-n2ncc3c2CCCC3NC(=O)CCCN2CCCCC2=O)cc1C (stereo not drawn)	-15.8
N#CCc1ccc(Oc2ccc([N+](=O)[O-])cn2)cc1	-11
CNC[C@H](CC1CCCCC1)NC[C@H](NCCC1CCCC1)[C@H](C)O	-13
C=CCn1nc([N+](=O)[O-])nc1Sc1cccc2cccnc12	-2.55
COCc1c(C(=O)OCC(=O)NCCN2C(=O)CSC2=O)oc2ccccc12	11.1
CCN(C(=S)Nc1ccc(C(C)=O)cc1)C1CCCCC1	3.5
CC1CCc2nn(CC(=O)Nc3ccc(F)cc3F)cc2C1 (stereo not drawn)	-2.61
CCCS(=O)(=O)N1CCCC(C(=O)N2CCN(c3ccccn3)CC2)C1 (stereo not drawn)	2.52
CC(=O)Nc1cccc(-c2nc3ccccc3[nH]2)c1	1.87
CCOc1cc(CN2CCN(C(=O)c3ccco3)CC2)ccc1OC	-28.7

SMILES	hERG current change (%, negative = inhibition) at 10uM [%]
COc1cc(C2NC(=O)CCC2[N+](=O)[O-])cc(OC)c1OC (stereo not drawn)	29.6
COc1ccc(-c2nc(-c3cccs3)no2)cc1	-0.668
O=C(CCCCCn1c(=S)[nH]c2ccc(N3CCOCC3)cc2c1=O)NCCc1ccccc1	0.587
COC(=O)C1C(=O)NCC1c1ccc(C)cc1 (stereo not drawn)	16.9
Cc1ccc(-n2c(C)cc(=O)cc2C)c(C)c1	-0.0171
Clc1ccc(CSc2nnc(CNc3cccc(Cl)c3)o2)cc1	3.8
NC(=O)c1ccc(NC(=O)COC(=O)CCSc2ccccc2)cc1	1.01
Cc1cc(C)cc(OCC(=O)OCCN2C(=O)c3ccccc3C2=O)c1	-3.21
CSCCC(NC(=O)COc1ccccc1)C(=O)NCc1cccs1 (stereo not drawn)	-36.7
CCOc1ccc(OCC)c(NC(=O)CSCCc2ccccn2)c1	-4.89
COc1cc(/C=N/n2nnnc2N)ccc1OC(C)C	3.75
O=S(=O)(N/N=C/c1cccc(OC2CSC2)c1)c1ccccc1	-17.2
COCCN(C(=S)Nc1ccc(OC)cc1)C(C)c1cccs1 (stereo not drawn)	-18.2
Cc1ccc(NC(=O)CSc2nnc(-c3ccccc3C)o2)cc1C	8.78
O=C(COC(=O)c1ccc(F)cc1)Nc1ccc(Cl)cn1	7.4
O=C(C1=C[C@@H](C2CCCCC2)C[C@@H](OCCCCO)O1)N1CCOCC1	0.668
C=CCNC(=O)CSc1nc2cc(C(=O)OCC)ccc2n1CC	2.83
CC1=NN(c2ccc(C)cc2C)C(=O)C1C(c1cccc(O)c1)C1C(=O)N(c2ccc(C)cc2C)N=C1C (stereo not drawn)	-6.45
O=C(Cc1cccs1)NCCCc1ccccc1	-0.581
Cc1cccc(NC(=O)COc2ccc3oc4c(c3c2)CCCC4)n1	4.11
O=C(/C=C/c1ccc2c(c1)OCO2)Nc1cc(S(=O)(=O)N2CCOCC2)ccc1N1CCOCC1	-55.9
Cc1c(C(=O)Nc2ccccc2C(=O)N2CCOCC2)cccc1[N+](=O)[O-]	-6.92
CCCCNC(=O)N(C)c1nc2ccccc2s1	-8.43

SMILES	hERG current change (%, negative = inhibition) at 10uM [%]
Cc1cccc(/C=N/n2c(-c3ccccn3)n[nH]c2=S)c1	19.2
CCOC(=O)c1ccccc1NC(=O)CSc1nnc(COc2ccccc2)n1CC	-38.5
COc1cc(C(C[N+](=O)[O-])c2c(-c3ccccc3)cc3ccccn23)cc(OC)c1OC (stereo not drawn)	17.2
O=C(NC1CCCCCCC1)C1CCC(CNc2c(N3CCCC3)c(=O)c2=O)CC1 (stereo not drawn)	6.33
Cc1nn(-c2ccccc2)c(N)c1C1(O)C(=O)N(C)c2ccccc21 (stereo not drawn)	14.4
Cc1cccc(OCc2nnc(SCC(=O)N(C(C)C)C(C)C)n2Cc2ccco2)c1C	-43.9
CCN(Cc1nc2ccccc2n1C)c1ccccc1	-6.44
CSc1nc2ccccc2n1C(=O)NC1CCCCC1	13.8
COc1ccc(N2CCN(Cc3nc(-c4ccccc4)no3)CC2)cc1	8.23
COc1ccc(-c2noc(CNC(=O)Nc3ccc(F)cc3)n2)cc1	-5.09
CCn1ncc(C2=NOC(C(=O)NCc3ccc(Cl)cc3)C2)c1C (stereo not drawn)	-10.3
Clc1c(-c2ccccc2)nc2ccccn12	-1.73
COc1ccc(S(=O)(=O)N(C)CC(=O)NCCCN2CCOCC2)cc1Cl	-17.1
CCCC(=O)Nc1nn(CCC)c2nc3ccccc3cc12	-4.79
Cc1cccc(/C=N/NC(=O)c2ccncc2)n1	23
O=C1C(Cl)=CC(=Nc2ccc([O-])cc2)C=C1Cl.[Na+]	-0.852
Cc1ccc(O)c(-c2cc(C(=O)Nc3ccc(S(=O)(=O)N4CC(C)OC(C)C4)cc3)[nH]n2)c1 (stereo not drawn)	3.92
Cc1ccc(SCCC(=O)N2CCN(S(=O)(=O)c3ccccc3)CC2)cc1	-35
N#Cc1ccc(CSc2ncccn2)cc1	-2.69
O=C(c1cn(Cc2ccccc2)c2ccccc12)C1CC1	7.67
COc1ccccc1NC(=O)Cc1nnc(SCC(=O)Nc2nccs2)n1C	20.8
COC(=O)N/N=C(\CCC(=O)O)c1cccs1	11.7
CC1CN(C(=O)c2cc(S(=O)(=O)N3CCN(c4ccccc4)CC3)ccc2Cl)CC(C)O1 (stereo not drawn)	-39.8

SMILES	hERG current change (%, negative = inhibition) at 10uM [%]
CN(C)c1ccc(/C=[N+](\[O-])C2N(c3ccccc3)C(=S)SC2(C)C)cc1 (stereo not drawn)	8.72
O=C(COC(=O)Cn1cnc2ccccc21)Nc1cc2c(cc1Cl)C(=O)c1ccccc1C2=O	14.8
CN(C)S(=O)(=O)N1CCC(Oc2ccc(C(=O)NC3Cc4ccccc4C3)cc2)CC1	7.61
O=C1CC(SC2=NCCS2)C(=O)N1c1cccc(Cl)c1Cl (stereo not drawn)	11.1
CCCc1c(O)nc(SC2CC(=O)N(c3ccc(OC)cc3)C2=O)[nH]c1=O.Cl (stereo not drawn)	1.99
CC(=O)c1cccc(CN2CCN(C3CCCC3)C(CCO)C2)c1 (stereo not drawn)	-23.9
N/C(=N\OC(=O)COc1ccc(Cl)cc1)c1ccc(Cl)cc1	17.9
O=C(N[C@@H](Cc1ccccc1)C(=O)O)c1cccs1	15.5
CNC(=S)NNC(=O)c1ccccc1Br	7.8
CCOc1ccccc1C=Nc1ccccc1C(=O)Nc1ccccc1	-3.41
CCC(C)N(NC(C)=O)c1nc(Cl)nc(NC(C)C)n1 (stereo not drawn)	-4.33
COc1cccc(/C=N/NC(=O)c2cccc([N+](=O)[O-])c2)c1OS(=O)(=O)c1ccccc1	-16.2
CCOC(=O)C1CN(S(=O)(=O)c2ccc(Cl)cc2)c2cc(S(=O)(=O)CC)ccc2O1 (stereo not drawn)	-19.5
Cc1ccc(/C=C2/Sc3ccccc3N(CC(=O)NCCCOC(C)C)C2=O)cc1	1.84
COc1ccc(C(CC(=O)N2CCCC2)c2c(OC)cc(OC)c3ccc(=O)oc23)cc1 (stereo not drawn)	-9.25
CCCc1cc(=O)oc2c(CN3CCOCC3)c(O)ccc12	-16.7
COc1cc(C2c3c(oc4ccccc4c3=O)C(=O)N2Cc2ccncc2)ccc1O (stereo not drawn)	-29.7
COC(=O)c1sc(-c2ccc(C(C)(C)C)cc2)cc1NC(=O)c1ccccc1C(=O)O	9.37
CCC(=O)Nc1cccc(NC(=O)c2cccnc2)c1	3.31
COc1ccc(CCNC(=O)COC(=O)CCC(=O)c2ccc(F)cc2)cc1	4.8
COc1cccc(CC(=O)N(C)C2CCCN(Cc3ccccc3F)C2)c1 (stereo not drawn)	-4.79
